The supplement of paper PMC7125110
Variants at the floor of the assay are shown more often than the library holds them.

B1: glmS ribozyme (parent)
chain: AUAAAAGCGCCAGAACUACAGAAAUGUAGUUGACGAGGAGGAGGUUUAUCGAAUUUUCGGCGGAUGCCUCCAAA

Variants of: B1
Experiment: self-cleavage kobs at 2500 uM GlcN6P; higher = faster cleavage; RNA array
Details: with glucosamine-6-phosphate
Method in brief: (§1)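 Weighted Michaelis–Menten fits across concentrations supplied kcat and KM, based on kobs from one- or two-exponential decay fits to normalised per-tile medians. The data came from barcoded ribozyme variants transcribed in situ by E. coli RNA polymerase on sequenced MiSeq chips and tracked at 37 °C by a hybridised Cy3 probe. Glucosamine-6-phosphate (40 μM to 10 mM) in HEPES/KCl/Mg(OAc)2 buffer was flowed in.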

Row | Variant | self-cleavage kobs at 2500 uM GlcN6P
1 | C34G G62U C67G | < 1e-05 s⁻¹
2 | C34G U54C G60U | < 1e-05 s⁻¹
3 | C34U A36C A39U | < 1e-05 s⁻¹
4 | C34U A36C A64C | < 1e-05 s⁻¹
5 | C34U A36G A53C A64U C70G | < 1e-05 s⁻¹
6 | C34U A42U U49G U54A U56C G63U | < 1e-05 s⁻¹
7 | C34U C58U U65A | < 1e-05 s⁻¹
8 | C34U G35A | < 1e-05 s⁻¹
9 | C34U G35A G44U | < 1e-05 s⁻¹
10 | C34U G35C A52U C68G | < 1e-05 s⁻¹
11 | C34U G37A A39C | < 1e-05 s⁻¹
12 | C34U G40A U57A | < 1e-05 s⁻¹
13 | C34U G40U A64C | < 1e-05 s⁻¹
14 | C34U G41U A52G G63U | < 1e-05 s⁻¹
15 | C34U G43C A52U | < 1e-05 s⁻¹
16 | C34U G44U U49C G59A C61A | < 1e-05 s⁻¹
17 | C34U U45A C67U | < 1e-05 s⁻¹
18 | C34U U45G U56A | < 1e-05 s⁻¹
19 | C34U U47A G59U A64C C70U | < 1e-05 s⁻¹
20 | C34U U55C C61G | < 1e-05 s⁻¹
21 | C34U U56A C61U | < 1e-05 s⁻¹
22 | G35A A42U | < 1e-05 s⁻¹

Row | Variant | self-cleavage kobs at 2500 uM GlcN6P
23 | G35A A53U C58U | < 1e-05 s⁻¹
24 | G35A G40A G60U | < 1e-05 s⁻¹
25 | G35A G40U G43C C71G | < 1e-05 s⁻¹
26 | G35A G41A G66U | < 1e-05 s⁻¹
27 | G35A G41A U54G | < 1e-05 s⁻¹
28 | G35A G41U C70A | < 1e-05 s⁻¹
29 | G35A G44U G51C C67G | < 1e-05 s⁻¹
30 | G35C A36U G59U C61G | < 1e-05 s⁻¹
31 | G35C A42U A64G | < 1e-05 s⁻¹
32 | G35C G40C C70G | < 1e-05 s⁻¹
33 | G35C G41A U45C | < 1e-05 s⁻¹
34 | G35C G41U U45G A64C C70G | < 1e-05 s⁻¹
35 | G35C G60A G63C A64G | < 1e-05 s⁻¹
36 | G35C U49G C50G C70G | < 1e-05 s⁻¹
37 | G35U A36G G63C | < 1e-05 s⁻¹
38 | G35U A36G U65C | < 1e-05 s⁻¹
39 | G35U A42U G59U | < 1e-05 s⁻¹
40 | G35U A52C U54G | < 1e-05 s⁻¹
41 | G35U G38A A53U | < 1e-05 s⁻¹
42 | G35U G40U C67G | < 1e-05 s⁻¹
43 | G35U G41C G43U C50U | < 1e-05 s⁻¹

Variants of: B1
Experiment: self-cleavage kobs at 10000 uM GlcN6P; higher = faster cleavage; RNA array
Details: with glucosamine-6-phosphate
Method in brief: as §1

Row | Variant | self-cleavage kobs at 10000 uM GlcN6P
44 | G35C G41A U45C | < 1e-05 s⁻¹
45 | G35U G38A A53U | < 1e-05 s⁻¹
